Values marked as one replicate rest on one cluster of the flow cell; about a third of the high ones do not repeat.
System: ATP
Assay: switch fluorescence ratio, 500 uM ATP over buffer (Cy3 cluster intensity, sum of 5 cycles each) (fold (ratio)); higher = stronger signal-on switching upon ATP binding; sequences stand for … in TCGTCGGCAGCGTCAGATGTGTATAAGAGACAGTTTTTTTTTTTTTTTTTTTTTTTTT…TC
Conditions: aptamer strand: ATP DNA aptamer (quencher-CACCTGGGGGAGTATTGCGGAGGAAGG + anchor), 100 nM annealed; ATP concentration: 500 uM; one replicate
Method in brief: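 Values give the fluorescence ratio for each switch-domain sequence, averaged from per-cluster ratios of summed target-cycle to summed buffer-cycle Cy3 intensity. The Cy3-labelled switching-strand clusters sat on a modified Illumina MiSeq flow-cell, were annealed to 100 nM quencher-labelled ATP aptamer, and were imaged in selection buffer, then after 15 min with 500 uM ATP at 22 °C. Five cycles ran with NaOH stripping and re-annealing between them, and clusters outside 100-1000 RFU were excluded.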
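Note: ATP exposure 15 min at 22 °C before imaging.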

Row | Sequence | switch fluorescence ratio
1 | TCGTAAAGAT | 1.25
2 | TGCATCATTA | 0.962
3 | GGGCTTTTAT | 0.985
4 | TCTAGAGGTC | 0.914
5 | AACCCGATTC | 1.05
6 | ATATTGAATC | 0.972
7 | ACAGCAACGA | 1.22
8 | AGACAGAACT | 1.05
9 | ATATACTGTG | 1.02
10 | GATCATAGAA | 1.01
11 | TCTAAATGGC | 1.04
12 | ACGATATGTA | 1.04
13 | AAGTATTTC | 1.01
14 | CAGCCTAGTA | 1.05
15 | CACTAAGGTA | 1.03
16 | TCCTAGCATC | 4.19
17 | GGCTCACTAT | 1.03
18 | GAAATGGGTA | 0.99
19 | TAATGGATTT | 1.03
20 | TGGTGTTGAG | 0.989
21 | CACGGATTAA | 1.03
22 | TAGGTTGCTG | 0.988
23 | AATAATCTGA | 0.969

Row | Sequence | switch fluorescence ratio
24 | TACGCATGG | 1.25
25 | AAGTTATGGT | 1.01
26 | AATAATTGAG | 0.974
27 | ATTTTGCAG | 1
28 | AAGGGAAAAG | 1.04
29 | GGATTCTCAG | 0.98
30 | CGTCGCAGTC | 1.6
31 | ATTCCGCAAA | 2.65
32 | AATTATTATA | 1.07
33 | ACGGTGGTAT | 0.989
34 | CTTCCCATAT | 1.38
35 | GGGCTTCAC | 0.99
36 | CTTCAGAGTG | 0.963
37 | GAAACACGAT | 1.05
38 | CGTGGCCTTG | 0.925
39 | ATACTTCGTT | 1.07
40 | GATGTCTGGA | 0.998
41 | TTGTTCCCT | 1.03
42 | ACACCTAGTG | 1.02
43 | GAGTGCCTCG | 0.957
44 | TATCAGTAGC | 0.982
45 | CGTATGTAGG | 0.98
46 | GTAACCAGAT | 1.04

Row | Sequence | switch fluorescence ratio
47 | TGATCACTAA | 1.02
48 | ATGTCGCCTG | 1.01
49 | TTCGCGATGC | 3.24
50 | TACTGTATGG | 0.984
51 | ACATACTAAT | 1.26
52 | CTATTCCCA | 1.02
53 | CAGAGCAGCA | 1.15
54 | CGCGTCGAAC | 1.08
55 | TTGTATATCT | 1.05
56 | TTAAAAGCTC | 0.974
57 | TTTGCAGTTG | 0.95
58 | CGACTAATTC | 1.32
59 | AGTCTAAGAT | 0.992
60 | AGTTCGGAAG | 1.01
61 | TTCGATGAAA | 1.02
62 | ATAGGCGACA | 1.01
63 | GGTATGTTGT | 1.05
64 | CGTCTAATCT | 1.05
65 | GCTGAGGCTC | 1.03
66 | GACTTCTTAT | 1.03
67 | GGCCCAGTGC | 1.47
68 | AAGAACTTAA | 1.07
69 | GTATCAATAA | 0.997

Row | Sequence | switch fluorescence ratio
70 | CTTGTGCAGC | 1.12
71 | CAACTTTTTT | 1.03
72 | ATGCTCTCGC | 0.991
73 | TGTATGCTCC | 1.05
74 | GGCTCGTCAT | 0.968
75 | CGTAAAATTG | 1.01
76 | GGGGTTGG | 1.01
77 | ACTCCTCGTG | 1.84
78 | TAAGTTCCGG | 0.986
79 | AGTATTTGCA | 0.947
80 | GCAGTAGATT | 1.01
81 | GACATCGCAG | 1.11
82 | AACAGGGCTT | 1
83 | TATGCTTAAA | 0.993
84 | AAGTGCGCAG | 1.02
85 | GAGTACGTTC | 0.978
86 | TTAGACTTCT | 1
87 | TAAGAGTTAC | 1.08
88 | ATCCTGGAT | 0.967
89 | CTATTTCTAT | 1.02
90 | CGGGTGGGTT | 0.967
91 | ACATGGGGCA | 1.04
92 | CACTTATCAA | 1.05

Row | Sequence | switch fluorescence ratio
93 | TGGCTGTGTG | 0.983
94 | CGCCCGGGGT | 1.24
95 | GCAATGTGCG | 1.02
96 | TTCATTTCAG | 1.03
97 | CTAATAAGAT | 0.983
98 | CAGCGCCCC | 1.1
99 | CGGGGGATA | 0.942
100 | AAACAGCGCA | 1.02
101 | TCATCTCGTT | 1.04
102 | TGATTTAT | 1
103 | ATTTTGCGGT | 1.01
104 | TTAAGATCTG | 0.962
105 | TTTTGATGTG | 0.997
106 | ACGTGAGCCC | 1.06
107 | TACTAAATAT | 0.987
108 | ATCGAGCTGA | 1.01
109 | GCCCAAGCT | 1.03
110 | AAACAGCCAG | 1.02
111 | GTCAACGTAC | 1.81
112 | ACGTCTGTAT | 1.03
113 | CCGCTTTCGC | 2.42
114 | TACCTGTACT | 1.24
115 | TTAGAGTACT | 0.958

Row | Sequence | switch fluorescence ratio
116 | GCCTCGACGT | 1.04
117 | TGCTCGCGTA | 1.02
118 | TCTTGTGTTG | 1
119 | GTTGAGCATG | 1.06
120 | GTGGCACGCG | 1.01
121 | TTGTAACCTT | 1.42
122 | AACCCCGATA | 1.07
123 | CGATCTTGAA | 0.983
124 | TGTCATCAAT | 0.948
125 | GGATAGACGA | 1
126 | TCCATTTGAA | 0.974
127 | GGGACCGACG | 1.13
128 | ATCGGAGCT | 1.06
129 | CAGCCGGGGG | 1.05
130 | CGATGGCCCG | 0.978
131 | TTCGGTTATC | 1.02
132 | GTTTGGGCTA | 0.996
133 | AATAAGTTC | 0.979
134 | TTTGCCACAG | 0.997
135 | GGCTGTCTTC | 1.01
136 | TTGGTCAGAT | 0.991
137 | ATATGAGGGC | 1
138 | AGAAAACGTT | 1.02

Row | Sequence | switch fluorescence ratio
139 | AGCCCGGGCT | 0.984
140 | TATAGGTGGT | 0.991
141 | GGGAAGTGCT | 0.884
142 | TTCACTTCA | 0.991
143 | ATAGAAGCTA | 1
144 | AACTACAATG | 1.06
145 | AGTATACCTA | 0.926
146 | AGTTGAGGCG | 1.09
147 | AGTCCGTGAT | 1.73
148 | GAACTAGTGT | 1.03
149 | AAACGCGTTT | 1
150 | TTACTATTAT | 1.05
151 | CGCTTTCCGT | 0.988
152 | ATGAAACTTA | 1.02
153 | CGCGATCGGT | 1.15
154 | TCAAACGGTA | 1.1
155 | CAGTCCTTTT | 1.02
156 | GATTGGCATG | 0.973
157 | GGAACTGTTG | 1.04

— the supplement of paper PMC10126150
